In all, about 310,000 compounds went through this assay and about 14,000 (4.5%) showed an effect of 50% or more. The effect is printed as a negative number. Some of the results follow.
Target: human ether-à-go-go-related gene (hERG) potassium channel (human, UniProt Q12809)
Assay: primary screen, population patch clamp on CHO cells stably expressing hERG
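Also: peak tail current of the secondary pulse compared with the same well before compound.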

Chain of human ether-à-go-go-related gene (hERG) potassium channel (Q12809 whole entry, looked up): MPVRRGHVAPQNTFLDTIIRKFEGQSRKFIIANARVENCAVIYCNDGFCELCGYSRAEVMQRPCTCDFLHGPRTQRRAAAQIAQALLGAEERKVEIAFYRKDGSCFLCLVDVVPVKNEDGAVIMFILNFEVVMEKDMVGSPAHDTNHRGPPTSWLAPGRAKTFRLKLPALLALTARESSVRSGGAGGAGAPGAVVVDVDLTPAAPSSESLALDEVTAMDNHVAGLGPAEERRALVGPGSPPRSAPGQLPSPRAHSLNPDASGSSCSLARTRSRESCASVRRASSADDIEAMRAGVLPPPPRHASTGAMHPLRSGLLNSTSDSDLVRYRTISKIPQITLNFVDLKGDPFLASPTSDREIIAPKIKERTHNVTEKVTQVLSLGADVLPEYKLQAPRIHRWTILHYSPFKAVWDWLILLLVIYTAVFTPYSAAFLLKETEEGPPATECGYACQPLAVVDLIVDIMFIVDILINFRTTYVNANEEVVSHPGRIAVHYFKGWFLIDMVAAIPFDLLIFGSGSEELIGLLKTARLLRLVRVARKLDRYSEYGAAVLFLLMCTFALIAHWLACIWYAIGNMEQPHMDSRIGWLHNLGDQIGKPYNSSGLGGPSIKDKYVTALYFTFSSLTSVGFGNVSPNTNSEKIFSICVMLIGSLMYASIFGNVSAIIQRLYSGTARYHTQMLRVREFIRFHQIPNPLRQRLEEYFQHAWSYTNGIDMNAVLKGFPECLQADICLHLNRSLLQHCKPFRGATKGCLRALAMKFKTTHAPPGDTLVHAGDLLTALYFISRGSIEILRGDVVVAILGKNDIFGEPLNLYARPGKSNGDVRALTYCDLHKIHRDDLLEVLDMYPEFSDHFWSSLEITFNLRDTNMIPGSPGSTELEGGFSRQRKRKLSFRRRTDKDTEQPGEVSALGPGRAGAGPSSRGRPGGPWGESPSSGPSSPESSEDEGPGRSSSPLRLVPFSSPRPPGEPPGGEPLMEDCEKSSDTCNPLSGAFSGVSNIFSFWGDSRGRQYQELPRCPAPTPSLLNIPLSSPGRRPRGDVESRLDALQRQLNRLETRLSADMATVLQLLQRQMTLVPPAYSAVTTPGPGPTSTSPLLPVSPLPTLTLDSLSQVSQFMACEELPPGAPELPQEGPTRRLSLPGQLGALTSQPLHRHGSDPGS

Structure (SMILES) | hERG current change (%, negative = inhibition) at 10uM
O=S(=O)(N1CCOCC1)N1CCCN(S(=O)(=O)N2CCOCC2)CC1 | 5.76%
O=C(CSc1nc2c(c(=O)[nH]1)CCC2)Nc1cccc(Cl)c1 | 4.27%
Nc1nn(-c2ccccc2)c(N)c1N=Nc1ccc2c(c1)OCO2 | -15.1%
O=C(Nc1nc2ccc(F)cc2s1)C1CC(=O)N(c2ccc3c(c2)OCCO3)C1 (stereo not drawn) | -8.48%
CCN(CC)S(=O)(=O)c1ccc(OC)c(NC(=O)OCc2ccccc2)c1 | -13.4%
CSCC[C@H](N)C(=O)N1CCC(C(=O)N[C@@H](Cc2c[nH]c3ccccc23)C(=O)O)CC1 | -0.871%
O=c1c2ccccc2sc2ccc(C#CC3(O)CCCCC3)cc12 | 6.27%
CC1(NC(=O)Cc2csc(-c3cccc(Cl)c3)n2)CCS(=O)(=O)C1 (stereo not drawn) | 13.9%
Cc1ccc(S(=O)(=O)NCCCCCC(=O)NCCc2ccccc2)cc1 | 11.1%
O=C(NCc1ccccc1)c1cccc(COc2cccc(Cl)c2)c1 | -1.36%
CCOc1ccc(NC(=S)NN2C(C)CCCC2C)cc1 (stereo not drawn) | 6.62%
O=S(=O)(Nc1ccc(O)cc1)c1cccc2cccnc12 | 10.2%
CCCc1nc2ccc(NC(=O)NCCC(=O)OCC)cc2c(=O)n1Cc1cccc(Cl)c1 | -7.18%
COC(=O)c1ccc(/C=C2/SC(=S)N(CCCC(=O)Nc3ccc(O)cc3)C2=O)cc1 | 18.1%
Cn1c(SCC(=O)Nc2ccccc2F)nnc1-c1cccs1 | -24.2%
Cn1nnnc1-c1cc(Cl)cc(Cl)c1 | 12%
COc1cccc(/C=N/NC(=O)c2c(-c3ccccc3)noc2C)c1 | 5.76%
COCC(=O)N1CCCC(C(=O)c2ccc(-c3ccccc3)c(F)c2)C1 (stereo not drawn) | -23.3%
COc1ccc(Nc2nnc(C)c3ccccc23)cc1 | -18.1%
Cc1nc(C(F)(F)F)ccc1C(=O)NCC(O)c1ccccc1 (stereo not drawn) | 8.53%
COc1ccccc1Cc1noc(C(C)(C)NC(=O)c2ccccc2)n1 | -1.62%
CC(C)(C)c1ccc(/C=N/n2cnnc2)cc1 | 4.95%
COc1ccc(Cl)cc1NC(=O)COC(=O)C(CC(C)C)N1C(=O)C2CC=CCC2C1=O (stereo not drawn) | 3.88%
Cc1sc(NC(=O)Cc2ccc3c(c2)OCO3)nc1-c1ccc2c(c1)CCN2C(=O)c1ccc(F)cc1 | 4.78%
